Laboratory results: PubChem BioAssay (NCATS)
Some of the results follow. Shown are side measurements of this screen, not its main read-out; they come without a call. Most of these compounds were active or inconclusive in the main read-out, so they are no random draw. The note in brackets gives the kind of curve behind each potency; many fits are weak.

Experiment: qHTS Assay for Lipid Storage Modulators (AID 1519)
Details: Drosophila S3 cells, BODIPY lipid droplet/cell ratio, laser cytometry, cells loaded with oleic acid
Outline: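 Cells seeded at 5,000 per well were treated with compounds over a concentration series and loaded with oleic acid (400 uM, as added). Lipid droplet fluorescence (488 nm excitation, 500-530 nm channel) was read by laser-scanning cytometry and normalized to 20 uM Triacsin C.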

[1] = measured here: cell count channel max response
[2] = measured here: cell number channel AC50
[3] = measured here: lipid (BODIPY) channel AC50
[4] = measured here: lipid channel max response
Tags give direction and shape of the fitted curve.

Row | SMILES | max response [1] [%] | AC50 [2] | AC50 [3] | max response [4] [%]
1 | CCCCCCCCN[C@@H](C)[C@H](O)c1ccc(SC(C)C)cc1 | -37 | 15800 nM [falling, single point] | 15800 nM [falling, single point] | -83
2 | COCCn1c(=O)c(-c2cccc(C#N)c2)nc2cnc(Oc3cccc(Cl)c3)nc21 | -3.89 | 3160 nM [rising, single point] | 3550 nM [rising, single point] | -11.2
3 | CCNc1ncc2nc(-c3cccs3)c(=O)n(C[C@H]3CCCO3)c2n1 | -1.84 | 3550 nM [rising, single point] | 3980 nM [rising, single point] | -9.31
4 | Cc1cccc(CNc2cc(-c3ccc(N(C)C)cc3)ncn2)c1 | -41 | 22400 nM [falling, partial curve] | 25100 nM [falling, partial curve] | -111
5 | CC(C)c1ccc2c(c1)CC[C@@H]1[C@@](C)(CN)CCC[C@]21C | 6.87 | 10 nM [falling, full curve, poor fit] | 2.24 nM [falling, full curve, poor fit] | 14.7
6 | O=c1c(CCc2ccccc2)nc2cnc(N3CCNCC3)nc2n1Cc1cccs1 | 30 | 5620 nM [rising, partial curve] | 5010 nM [rising, partial curve] | 38.7
7 | COc1cc(/C=C\C(=O)N2CCC=CC2=O)cc(OC)c1OC | -58.5 | 15800 nM [falling, single point] | 14100 nM [falling, partial curve, poor fit] | -91.6
8 | CCNc1ncc2nc(CCc3ccccc3)c(=O)n(-c3ccccc3)c2n1 | 20.4 | 282 nM [rising, full curve, poor fit] | 251 nM [rising, full curve] | 31.3
9 | COc1cccc(Cn2c(=O)c(-c3cccc(C#N)c3)nc3cnc(N4CCOCC4)nc32)c1 | 33 | 2510 nM [rising, partial curve, poor fit] | 1000 nM [rising, partial curve] | 42
10 | Cc1cnc(CNc2nc(-c3ccccc3C)nc3ccccc23)cn1 | 34.8 | 447 nM [rising, full curve] | 1000 nM [rising, full curve, poor fit] | 45.7
11 | CCNc1ncc2nc(-c3cccs3)c(=O)n(CCc3ccccc3)c2n1 | 104 | 20000 nM [rising, partial curve] | 708 nM [rising, full curve] | 7.56
12 | O=c1c(-c2cc(F)cc(F)c2)nc2cnc(N3CCOCC3)nc2n1CCc1ccccc1 | 30 | 2000 nM [rising, full curve] | 1780 nM [rising, full curve] | 40
13 | N#Cc1cccc(-c2nc(NCc3cccnc3)c3ccccc3n2)c1 | 3.37 | 178 nM [rising, full curve] | 200 nM [rising, full curve] | 8.94
14 | CN(C)c1ncc2nc(-c3ccc(Cl)cc3)c(=O)n(CCC#N)c2n1 | 46.7 | 5010 nM [rising, partial curve] | 3160 nM [rising, full curve] | 52.9
15 | CCNc1ncc2nc(-c3ccc(Cl)cc3)c(=O)n(Cc3cccs3)c2n1 | 24.5 | 891 nM [rising, full curve, poor fit] | 708 nM [rising, full curve, poor fit] | 23.3
16 | Cc1nc2ccc(NC(=O)Nc3ccnc4cccnc34)cc2o1 | 74.7 | 2000 nM [rising, full curve] | 1780 nM [rising, full curve] | 92.4
17 | COc1cccc(Nc2ncc3nc(CCc4ccccc4)c(=O)n(CCC#N)c3n2)c1 | -3 | 10 nM [rising, full curve, poor fit] | 89.1 nM [rising, full curve, poor fit] | 0.615
18 | COc1ccccc1-c1cc(-n2ccnc2)ncn1 | 48.3 | 501 nM [rising, full curve, poor fit] | 501 nM [rising, full curve, poor fit] | 61.3
19 | O=c1cnc2cnc(Oc3ccccc3)nc2n1Cc1cccs1 | 32.1 | 11200 nM [rising, partial curve, poor fit] | 2820 nM [rising, partial curve, poor fit] | 38.7
20 | FC(F)(F)c1ccccc1-c1ccc2ncnc(NC3CC3)c2c1 | 5.71 | 63.1 nM [rising, full curve, poor fit] | 35.5 nM [rising, full curve, poor fit] | 0.23

Row | SMILES | max response [1] [%] | AC50 [2] | AC50 [3] | max response [4] [%]
21 | Cc1noc(C)c1-c1nccc(N(C)C)n1 | 50.3 | 10000 nM [rising, partial curve] | 8910 nM [rising, partial curve] | 53.8
22 | CCNc1ncc2ncc(=O)n(Cc3cccc(OC)c3)c2n1 | 10.7 | 1260 nM [rising, partial curve] | 1410 nM [rising, partial curve] | 12.2
23 | CN(C)c1ccc(-c2cncnc2Nc2ccccc2)cc1 | 24.1 | 1580 nM [rising, full curve] | 1260 nM [rising, full curve] | 32.2
24 | CC#CCOC(=O)C1=CCCN(C)C1 | 5.44 | 15800 nM [rising, single point] | 15800 nM [rising, single point] | 4.84
25 | O=C(Oc1ccccc1)N1CCC2(CCCN(c3ncccn3)C2)CC1 | 9.73 | 28.2 nM [rising, full curve, poor fit] | 891 nM [rising, full curve, poor fit] | 20
26 | CNc1ccnc(-c2cccc(NS(C)(=O)=O)c2)n1 | 33.8 | 1000 nM [rising, full curve, poor fit] | 891 nM [rising, full curve, poor fit] | 37.3
27 | c1cncc(-c2cc(-n3ccnc3)ncn2)c1 | 35.4 | 1780 nM [rising, full curve] | 1580 nM [rising, full curve] | 43.8
28 | COc1ccc(CNc2cc(-c3ccccc3OC)ncn2)c(OC)c1 | 33.3 | 2240 nM [rising, full curve, poor fit] | 2510 nM [rising, full curve] | 43.6
29 | C=CCn1c(=O)c2c(nc(-c3ccc(S(=O)(=O)O)cc3)n2C)n(C)c1=O | -32.8 | 2.51 nM [falling, full curve, poor fit] | 2.24 nM [falling, full curve, poor fit] | -31.3
30 | Cn1cc(-c2nc3cncnc3n(Cc3ccccc3Cl)c2=O)c2ccccc21 | 60.9 | 7080 nM [rising, partial curve, poor fit] | 5010 nM [rising, partial curve, poor fit] | 63.7
31 | CO[C@]12C[C@@H](COC(=O)c3cncc(Br)c3)CN(C)[C@@H]1Cc1cn(C)c3cccc2c13 | 119 | 12600 nM [rising, partial curve] | 14100 nM [rising, partial curve] | 155
32 | CN1CCN(c2nc(-c3ccoc3)nc3ccccc23)CC1 | 52.2 | 2820 nM [rising, full curve] | 2510 nM [rising, full curve, poor fit] | 60.1
33 | O=c1cc(-c2ccccc2O)oc2c(O)c(O)ccc12 | 72.9 | 28200 nM [rising, partial curve] | 28200 nM [rising, partial curve] | 111
34 | Cn1ccc2cc(NC(=O)Nc3cccnc3)ccc21 | 114 | 2510 nM [rising, partial curve] | 1780 nM [rising, full curve] | 155
35 | CCNc1ncc2nc(-c3ccccc3)c(=O)n(-c3ccc(OC)cc3)c2n1 | 27.6 | 2510 nM [rising, full curve, poor fit] | 1410 nM [rising, full curve, poor fit] | 35.2
36 | O=c1c(-c2ccc(Cl)cc2)nc2cncnc2n1Cc1ccccc1 | 15.4 | 1580 nM [rising, partial curve, poor fit] | 39.8 nM [rising, full curve, poor fit] | 26.4
37 | COc1ccc(C(OCCN2CCC[C@@H](C(=O)O)C2)(c2ccc(OC)cc2)c2ccc(OC)cc2)cc1 | 53.7 | 14100 nM [rising, partial curve, poor fit] | 14100 nM [rising, partial curve, poor fit] | 75.4
38 | COc1ccc(CNc2ccnc(-c3ccoc3)n2)c(OC)c1 | 21.2 | 6310 nM [rising, partial curve, poor fit] | 3550 nM [rising, partial curve, poor fit] | 26.1
39 | OC(CN1CCC(Cc2ccc(F)cc2)CC1)c1ccc(Cl)cc1 (stereo not given) | 26.4 | 11200 nM [falling, partial curve, poor fit] | 11200 nM [falling, partial curve, poor fit] | 25.8
40 | CN(C)c1nc(-c2cccc(NS(C)(=O)=O)c2)nc2ccccc12 | 23.4 | 178 nM [rising, full curve, poor fit] | 355 nM [rising, full curve] | 23.9
